# From the supplement of paper PMC12632987
# Over roughly 4,500 sequences, “median log2 fold change of GCK-ALFA target abundance (FLAG IP / Myc IP barcode read proportion)” has its median near 0.078; the lowest 2% begin near -0.6. This is one part of the list.
# B1: GBRAP_172_5006 (protein)
# chain: DFKEIKVVIDSEDAEEAMAKIEEVIKEASKYPGAIVAIAARVKNEEDAERVEKYGEELAKKYPNITVRIFVSYDPSLNLEQIAQALLDDAILEREEEEEK
# B2: GBRAP_95_7018 (protein)
# chain: EDDQLAADSLAEVLETYVELGDEERARRAAVELVKVIAEDPSVQFPPDLSPEAARIVAEAAKATLSKEEAAAVLERGAASAADPEVRAIFEAALAEVRAE
# B3: GBRAP_9_7112 (protein)
# chain: KEELLAFALEELDEARAEVLKVAPEEEKPTVTAIFDDMRAALKAAAADPTTTLEEFLAAFEATAAAAAERIRAETSPLTAAAAESELALLVDEMEEKAEE
# B4: GBRAP_160_4180 (protein)
# chain: MEKVEKAEKEIEEIFKEAIEMMKGETAENRANIVDVAFGEILLLLEEEGLLTDELGEEIDEIEDEVVSTILENPDLTDEELAKLIEEAKKKIIEALKKSS
# B5: GBRAP_14_3788 (protein)
# chain: MEEKLALVDETKADLKRDARLIAPEKAAEIEAAIDEEMEKLKAEIKATGDAKAAVEKTKERLLKRLAEILADAPEEDRAALLAAADNEMAELELELEELD
# B6: GBRAP_9_7157 (protein)
# chain: MEELIEKVEEVIEDMLEEIKEVVPEEVKPAVEKRREEVKKRLEELGEDENATEEEIIEEAERLVRETLEEMKKLVDPETAKIVEAIALTAELEIEEIGEE
# B7: GBRAP_52_6135 (protein)
# chain: MRERLRALAREILELVRAGRLEEARALARELVESLNDEELREFAEEFARVVEELPPEELDAAATALDILVDAMEEAGVDESLISELIGKGTRAMYRVEQR
# B8: GBRAP_160_4441 (protein)
# chain: SPELEKAIEDFDEEAEFVKELIDEVSVEDFANFLDAEISSVALELLEEGLISEEAFDKIMEIIDEAVKTLLENPDMSIEEKKKLVDEMLEKIKEVLKEES
# Target: GABARAP, O95166
# Assay: median log2 fold change of GCK-ALFA target abundance (FLAG IP / Myc IP barcode read proportion) (log2 ratio); each designed protein is fused to an ALFA-tag nanobody in HEK293 cells to bring the named protein to FLAG-tagged glucokinase (GCK); Myc marks an untargeted standard; higher = target protein stabilised (more abundant)
# Details: target protein: 3xFLAG-MCP-GCK-ALFA reporter; HEK293 landing pad (RPLP)
# Outline: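 HEK293 landing-pad cells received a recombined binder library fused to the ALFA nanobody and were induced with 2 μg mL^−1 doxycycline, then transfected with a plasmid encoding a FLAG-tagged target and a Myc-tagged standard. Lysates were collected after 48 h for anti-FLAG and anti-Myc immunoprecipitation, and the circular RNA barcodes were reverse transcribed, amplified and sequenced. Target abundance for each binder is the median log2 ratio of FLAG to Myc barcode read proportions. Barcodes had to reach a proportion of at least 10^−7 in both replicates, each binder needed at least 3 barcodes per replicate, a pseudocount of 10^−6 was applied, and the two replicates were pooled.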
# Chain of GABARAP, O95166 (O95166 whole entry, the tested form may be a part): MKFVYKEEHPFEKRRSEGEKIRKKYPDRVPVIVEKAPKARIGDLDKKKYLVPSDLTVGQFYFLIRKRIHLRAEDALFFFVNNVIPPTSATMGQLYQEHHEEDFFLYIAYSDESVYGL
row,Binder,median log2 fold change
1,B1,0.552
2,B2,0.239
3,B3,0.2
4,B4,-0.491
5,B5,0.223
6,B6,-0.11
7,B7,-0.218
8,B8,-0.232
